For one molecule, binding results are on record in publication PMC3493068.

By UniProt entry, the sequences of proteins in these tests, tags left out. Where a name states a change or a piece, a line headed by the entry shows the natural chain unless it says otherwise. Residues count along the entry.
UniProt O75923: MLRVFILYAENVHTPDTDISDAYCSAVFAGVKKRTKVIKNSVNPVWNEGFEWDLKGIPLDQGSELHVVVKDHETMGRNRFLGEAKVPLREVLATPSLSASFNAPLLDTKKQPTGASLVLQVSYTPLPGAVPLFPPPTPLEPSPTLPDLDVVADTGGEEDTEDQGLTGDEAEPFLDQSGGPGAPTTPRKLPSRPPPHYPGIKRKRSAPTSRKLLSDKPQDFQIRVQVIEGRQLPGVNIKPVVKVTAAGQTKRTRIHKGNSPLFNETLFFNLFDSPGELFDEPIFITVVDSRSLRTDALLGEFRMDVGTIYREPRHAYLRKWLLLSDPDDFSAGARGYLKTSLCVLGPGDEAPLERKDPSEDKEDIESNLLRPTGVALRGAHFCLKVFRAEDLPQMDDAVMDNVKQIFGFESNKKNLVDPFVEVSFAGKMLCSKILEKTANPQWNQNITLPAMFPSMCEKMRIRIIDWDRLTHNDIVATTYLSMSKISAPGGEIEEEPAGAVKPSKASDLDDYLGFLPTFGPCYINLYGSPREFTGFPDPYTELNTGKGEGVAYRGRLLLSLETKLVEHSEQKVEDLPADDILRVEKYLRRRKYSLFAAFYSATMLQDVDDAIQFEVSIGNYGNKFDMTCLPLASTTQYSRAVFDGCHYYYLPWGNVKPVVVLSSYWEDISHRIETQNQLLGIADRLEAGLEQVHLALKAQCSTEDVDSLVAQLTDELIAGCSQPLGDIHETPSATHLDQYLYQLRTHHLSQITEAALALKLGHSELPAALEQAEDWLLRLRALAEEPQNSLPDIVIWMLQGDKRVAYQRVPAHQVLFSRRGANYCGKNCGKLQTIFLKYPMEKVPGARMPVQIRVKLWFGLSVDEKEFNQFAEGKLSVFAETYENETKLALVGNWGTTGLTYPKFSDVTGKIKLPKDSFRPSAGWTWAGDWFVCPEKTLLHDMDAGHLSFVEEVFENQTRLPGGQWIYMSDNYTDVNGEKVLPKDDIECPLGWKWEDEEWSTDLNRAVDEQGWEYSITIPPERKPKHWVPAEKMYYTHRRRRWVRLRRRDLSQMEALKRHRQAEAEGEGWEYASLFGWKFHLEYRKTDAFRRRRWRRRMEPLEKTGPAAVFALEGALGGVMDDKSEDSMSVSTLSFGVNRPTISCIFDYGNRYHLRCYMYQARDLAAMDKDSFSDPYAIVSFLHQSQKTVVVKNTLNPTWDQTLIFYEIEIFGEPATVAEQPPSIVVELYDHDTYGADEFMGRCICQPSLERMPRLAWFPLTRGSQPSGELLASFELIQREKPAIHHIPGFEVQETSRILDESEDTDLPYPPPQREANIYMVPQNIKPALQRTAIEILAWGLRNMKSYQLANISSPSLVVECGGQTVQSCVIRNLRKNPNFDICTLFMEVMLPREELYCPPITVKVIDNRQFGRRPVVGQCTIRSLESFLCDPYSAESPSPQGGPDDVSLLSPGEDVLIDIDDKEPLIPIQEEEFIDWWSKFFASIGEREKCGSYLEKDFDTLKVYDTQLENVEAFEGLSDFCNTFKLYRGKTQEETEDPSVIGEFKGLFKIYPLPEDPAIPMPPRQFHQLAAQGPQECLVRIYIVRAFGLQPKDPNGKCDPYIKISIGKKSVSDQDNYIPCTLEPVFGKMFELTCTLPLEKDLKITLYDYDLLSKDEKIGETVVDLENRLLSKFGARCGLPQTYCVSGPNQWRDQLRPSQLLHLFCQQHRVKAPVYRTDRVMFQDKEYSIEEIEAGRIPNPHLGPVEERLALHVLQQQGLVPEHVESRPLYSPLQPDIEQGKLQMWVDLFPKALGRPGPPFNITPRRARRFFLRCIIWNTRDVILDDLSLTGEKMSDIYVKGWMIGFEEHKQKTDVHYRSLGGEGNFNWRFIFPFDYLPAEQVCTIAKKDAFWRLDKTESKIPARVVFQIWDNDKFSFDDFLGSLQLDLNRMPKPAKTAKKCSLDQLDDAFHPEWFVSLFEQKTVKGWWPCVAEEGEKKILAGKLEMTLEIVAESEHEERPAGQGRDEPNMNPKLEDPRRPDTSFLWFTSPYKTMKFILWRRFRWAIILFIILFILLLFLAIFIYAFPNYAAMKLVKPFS
wild-type dysferlin C2A-GST fusion protein (aa 1-129 of human dysferlin): residues 1-129 of O75923

Assay [1] has as its target wild-type dysferlin C2A-GST fusion protein (aa 1-129 of human dysferlin) (human) (UniProt O75923). Briefly: condition: only without DTT or NEM (MG53 dimers), at free Ca2+ lower or higher than 10 μM; pull-down; C2A-GST fusion on glutathione Sepharose 4B; COS-7 lysate with FLAG-MG53 without DTT or NEM, cross-linked with glutaraldehyde (MG53 oligomers including dimers); absence of Ca2+ or free Ca2+ lower or higher than 10 uM; 2 hr at 4°C; only the target purified.

Assay [2] has as its target V67D dysferlin C2A-GST fusion protein (aa 1-129 of human dysferlin) (human) (UniProt O75923). Briefly: pull-down; C2A-GST fusion on glutathione Sepharose 4B; COS-7 lysate with FLAG-MG53 without DTT or NEM, cross-linked with glutaraldehyde (MG53 oligomers including dimers); absence of Ca2+ or free Ca2+ lower or higher than 10 uM; 2 hr at 4°C; only the target purified.
The target of assay [3] is W52R dysferlin C2A-GST fusion protein (aa 1-129 of human dysferlin) (human) (UniProt O75923). Briefly: condition: only without NEM (MG53 dimers), in the absence of Ca2+; pull-down; C2A-GST fusion on glutathione Sepharose 4B; COS-7 lysate with FLAG-MG53 without DTT or NEM, cross-linked with glutaraldehyde (MG53 oligomers including dimers); absence of Ca2+ or free Ca2+ lower or higher than 10 uM; 2 hr at 4°C; only the target purified.

Assay [4] deals with T1, FLAG-tagged full-length human MG53 (human) (UniProt Q6ZMU5).
T1 sequence: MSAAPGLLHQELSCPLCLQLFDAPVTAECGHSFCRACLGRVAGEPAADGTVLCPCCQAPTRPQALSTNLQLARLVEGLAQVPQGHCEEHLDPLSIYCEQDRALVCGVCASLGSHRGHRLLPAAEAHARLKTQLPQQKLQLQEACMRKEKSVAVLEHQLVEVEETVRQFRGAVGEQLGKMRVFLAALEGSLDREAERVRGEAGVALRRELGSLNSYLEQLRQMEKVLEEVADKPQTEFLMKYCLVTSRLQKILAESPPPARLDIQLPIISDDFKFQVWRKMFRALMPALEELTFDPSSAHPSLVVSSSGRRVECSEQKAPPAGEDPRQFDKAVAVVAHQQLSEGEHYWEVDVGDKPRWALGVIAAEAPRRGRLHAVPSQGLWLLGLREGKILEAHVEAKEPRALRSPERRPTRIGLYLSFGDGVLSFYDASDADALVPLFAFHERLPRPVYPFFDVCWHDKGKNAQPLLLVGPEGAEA
Briefly: cross-linking; COS-7 lysate with FLAG-MG53, with 5 mM NEM or without DTT and NEM, 2 mM glutaraldehyde 5 min at room temperature, anti-FLAG immunoblot. (A western blot detects proteins with antibodies after separation by electrophoresis.)

In assay [5] the target is wild-type dysferlin C2A-GST fusion protein (aa 1-129 of human dysferlin) (human) (UniProt O75923). Briefly: pull-down; C2A-GST fusion on glutathione Sepharose 4B; COS-7 lysate with FLAG-MG53 without DTT or NEM, cross-linked with glutaraldehyde (MG53 oligomers including dimers); free Ca2+ of 10 uM (printed 10 mM in the results); 2 hr at 4°C; only the target purified.
Assay [6] shares this target. Briefly: pull-down; C2A-GST fusion on glutathione Sepharose 4B; COS-7 lysate with FLAG-MG53 supplemented with 5 mM DTT and cross-linked with glutaraldehyde (MG53 monomers); with or without Ca2+; 2 hr at 4°C; only the target purified.
In assay [7] the target is c-myc-tagged full-length human dysferlin (human) (UniProt O75923). Briefly: co-IP; COS-7 cells co-transfected with FLAG-MG53 and c-myc-dysferlin constructs, lysed 48 h later in 20 mM Tris-HCl pH 7.5, 150 mM NaCl, 1% NP-40 without CaCl2 and EGTA; IP with anti-FLAG (M2) or anti-c-myc (9E10), immunoblot.
The target of assay [8] is W52R dysferlin C2A-GST fusion protein (aa 1-129 of human dysferlin) (human) (UniProt O75923). The experiment in a line: condition: only without NEM (MG53 dimers), in the presence of Ca2+; pull-down; C2A-GST fusion on glutathione Sepharose 4B; COS-7 lysate with FLAG-MG53 without DTT or NEM, cross-linked with glutaraldehyde (MG53 oligomers including dimers); free Ca2+ of 10 uM (printed 10 mM in the results); 2 hr at 4°C; only the target purified.

Assay [9] deals with T1, FLAG-tagged full-length human MG53 (human). Briefly: cross-linking; COS-7 lysate with FLAG-MG53, with 5 mM DTT, 2 mM glutaraldehyde 5 min at room temperature, anti-FLAG immunoblot.

Results are given in words; binding and its absence hold for the method and conditions named. Binding seen in cells or lysates may run through a third protein. Some entries that bind do so weakly or less than the wild type. Tags and fused reporters may be left off the sequences shown.

B1: FLAG-tagged full-length human MG53 (protein, UniProt Q6ZMU5 1-477)
chain: MSAAPGLLHQELSCPLCLQLFDAPVTAECGHSFCRACLGRVAGEPAADGTVLCPCCQAPTRPQALSTNLQLARLVEGLAQVPQGHCEEHLDPLSIYCEQDRALVCGVCASLGSHRGHRLLPAAEAHARLKTQLPQQKLQLQEACMRKEKSVAVLEHQLVEVEETVRQFRGAVGEQLGKMRVFLAALEGSLDREAERVRGEAGVALRRELGSLNSYLEQLRQMEKVLEEVADKPQTEFLMKYCLVTSRLQKILAESPPPARLDIQLPIISDDFKFQVWRKMFRALMPALEELTFDPSSAHPSLVVSSSGRRVECSEQKAPPAGEDPRQFDKAVAVVAHQQLSEGEHYWEVDVGDKPRWALGVIAAEAPRRGRLHAVPSQGLWLLGLREGKILEAHVEAKEPRALRSPERRPTRIGLYLSFGDGVLSFYDASDADALVPLFAFHERLPRPVYPFFDVCWHDKGKNAQPLLLVGPEGAEA
On to B1, for which the binding result was “no binding” in [1]; “binds” in assay [2]; “no binding” in assay [3]; “binds” in [4]; “binds” in [5]; “no binding (condition: with 5 mM DTT (MG53 monomers))” in [6]. Also, the binding result in assay [7] is “binds”; in [8] it was “no binding”; in [9], “no binding (condition: with 5 mM DTT)”.
